In all, about 48,000 compounds went through this assay and about 120 (0.25%) were called active. About 4% were inconclusive and are not listed. Calls come from the whole dose curve; as a rule, active = well fitted activation curve with a large enough effect; inconclusive = small, poorly fitted or top-dose-only effect, or another doubt; inactive = no such curve, though single readings can be large or run the other way. This is one part of the list.
assay: Primary qHTS for Identification of Small Molecule Activators of Huntingtin-Antisense Promoter Activity; conditions: HEK293 HTT-AS promoter firefly luciferase reporter, 24 h; series mostly up to 57.5 µM; activity change, positive = activation: at the top concentration; note: nearly all actives have a fitted effect of over 55% in size
Summary of the method: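 HEK293 cells carrying firefly luciferase reporters were seeded at 2,500 per well in Opti-MEM and cultured for 24 h. They were then treated with compounds at up to 57.5 uM final for 24 h at 37 degrees C before Dual-Glo luminescence readout.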

Activity change, positive = activation, inactive:
Clc1cccc(N2CCN(c3nc4ccccc4c4nc(-c5cccnc5)nn34)CC2)c1 -5.59%
CC(=O)N1c2ccc(S(=O)(=O)N3CCCCCC3)cc2CC1C(=O)NCc1cccc(F)c1 (stereo not given) -2.4%
Cc1ccc(S(=O)(=O)c2nc(-c3cccs3)oc2SC(C)c2ccccc2)cc1 (stereo not given) -4.3%
CCOc1ccc(CC(=O)NCCS(=O)(=O)N2CCN(c3ccccc3OC)CC2)cc1 -23.5%
CCS(=O)(=O)N1CCc2cc(C(=O)N3CCN(c4ccccc4)CC3)ccc21 -0.5%
CCCCC(=O)Nc1cc(-c2nc3ccccc3o2)ccc1OC 3.63%
CCOC(=O)c1noc2ncn(CC(=O)Nc3ccc(OC)c(Cl)c3)c(=O)c12 -7.67%
CCOc1ccc(-c2cc(C(=O)NCc3ccc(OCC)c(OC)c3)[nH]n2)cc1 -6.91%
COc1ccc(-c2ccc(NS(=O)(=O)c3ccccc3)cc2)nn1 -11.2%
O=c1c2sc3ccccc3c2n(Cc2ccc(F)cc2)c(=O)n1Cc1ccccc1 -14.1%
CCc1cccc(CC)c1NC(=O)CCS(=O)(=O)c1ccc(Br)cc1 -23.5%
Cc1cc(C)n2nc(SCC(=O)Nc3ccc(O)cc3)nc2n1 2.75%
COc1ccc2[nH]cc(CCNC(=O)Nc3c(C)cccc3C)c2c1 -3.8%
Cc1ccc(NC(=O)CSc2ncccc2C(=O)Oc2ccccc2Cl)cc1Cl 3.09%
COc1cc(C)ccc1OCCSc1nc2ccc(NC(=O)c3ccc4c(c3)OCO4)cc2s1 -37.9%
CCOC(=O)c1cc(-c2ccccc2)n(CCC(=O)Nc2ccc(OC)c(Cl)c2)c1C -32.1%
Cc1cc(NC(=O)CN(C)S(=O)(=O)c2ccc3c(c2)CCCC(=O)N3)ccc1Br -49.7%
Cc1ccccc1-c1nc2c(c(SCc3cccc(Cl)c3)n1)Cc1c(CO)cnc(C)c1O2 -10.1%
CCc1ccc(NC(=O)Cn2c(=O)n(CCCC(=O)NCc3ccccc3OC)c(=O)c3ccccc32)cc1 -16.3%
COc1cc(-c2nc(Cn3nnc(C(=O)Nc4ccccc4C)c3C)c(C)o2)cc(OC)c1OC -0.429%
CCOC(=O)CSc1nc2c([nH]c3ccccc32)c(=O)n1-c1ccc(OCC)cc1 -13.2%
Cc1ccccc1C(=O)Nc1nc2c(s1)CC(C(C)(C)C)CC2 (stereo not given) 6.8% [at 11.5 µM, percent change from vehicle, -100% = no light]
COc1ccc(-c2c(C)c3ccc(O)c(CN4CCN(C)CC4)c3oc2=O)cc1OC -18.7%
COc1ccc2c(c1)c1c(c(=O)n(-c3cccc(Cl)c3)c(=O)n1C)n2C -8.92%
Cc1cccc2sc(N(Cc3cccnc3)C(=O)C3CCCCC3)nc12 -10.6%
COc1ccc(S(=O)(=O)c2cn(CC(=O)Nc3ccccc3)c3ccc(Cl)cc3c2=O)cc1 -12%
COc1ccc(CSc2nc3ccncc3n2Cc2nc(-c3ccc(OC)c(OC)c3)oc2C)cc1 13.3%
Cc1cccc(NC(=O)CSc2nc(=O)n(CCN3CCOCC3)c3c2CCC3)c1C -9.23%
CCCC(=O)NCc1nc2cccnc2n1Cc1ccc(F)cc1 -5.25%
Cc1cccc(Cn2nnc3c(=O)[nH]c(C4CCN(C(=O)c5ccccc5F)CC4)nc32)c1 -18.7%
C=CCN1C[C@H](C(=O)N(CCCN(C)C)C(=O)NCC)C[C@@H]2c3cccc4[nH]cc(c34)C[C@H]21 -10.7%
Cc1ccc(NC(=O)Cn2c(=O)n(Cc3ccc4c(c3)OCO4)c(=O)c3ccc(C(=O)NC4CCCCC4)cc32)cc1 -11.4%
CCOC(=O)c1ccc(NC(=O)Cc2coc3cc(C)cc(C)c23)cc1 -8.32%
CCCCc1nn2c(=O)cc(COC(=O)c3ccccc3NC(=O)C3CCCCC3)nc2s1 -0.805%
COc1ccc(S(=O)(=O)NCc2cccn2Cc2cccc(C)c2)cc1OC -14%
CCN(C(=O)CSc1nnc(C)n2c1cc1occc12)c1ccccc1 -23.4%
CCOc1ccc(NC(=O)c2cc3c(=O)n4cccc(C)c4nc3s2)cc1 2.49%
Cc1cc([N+](=O)[O-])ccc1NC(=O)CSc1nccn1C -2.84%
COc1ccc(CNC(=O)c2cnc(N3CCCC3)nc2C)cc1 -9.69%
O=C(CSc1cn(CC(=O)N2CCOCC2)c2ccccc12)Nc1ccccc1C(F)(F)F -5.76%
COc1ccc(C)cc1NC(=O)CN1C(=O)CCc2cc(S(=O)(=O)N3CCOCC3)ccc21 -11.1%
Cc1ccc(C(c2sc3nc(-c4ccco4)nn3c2O)N2CCCCC2)cc1 (stereo not given) -1.71%
CC(=O)c1ccc(NC(=O)CSc2nc(-c3ccccc3F)nc3c2c(=O)n(C)c(=O)n3C)cc1 -5.72%
C=Cc1ccc(Cn2c(=O)n(-c3ccccc3C)c(=O)c3c4c(sc32)CN(C(C)=O)CC4)cc1 -34.9%
CCc1nn(CC(=O)Nc2c(C)cc(C)cc2C)c(=O)c2cc3sccc3n12 -14%
Cc1ccc(N(C)S(=O)(=O)c2ccc3[nH]cc(C(=O)O)c(=O)c3c2)cc1C -4.42%
CCN(Cc1ccccc1)C(=O)Nc1ccc2c(c1)N(C)C(=O)c1ccccc1S2 -19.3%
Cc1ccc(C(=O)Nc2ccc3c(c2)N(C)C(=O)c2ccccc2S3)cc1F -51.7%
CN1CCC(=C2c3ccccc3C=Cc3ccccc32)CC1
CC1Cc2cc(S(=O)(=O)NCc3ccc(F)cc3)ccc2N1C(=O)C1CCC1 (stereo not given) -37.5%
CCOC(=O)c1c(-c2ccc(C)cc2)csc1NC(=O)c1cc(=O)c2cc(C)c(C)cc2o1 4.09%
O=C(NCc1cccs1)c1ccc(CSc2nc3ccncc3n2Cc2cccc(F)c2)cc1 -29.8%
Cc1ccc(NC(=O)C2CCN(c3nc4ccccc4[nH]3)CC2)cc1Cl -20%
COc1ccccc1CNC(=O)Nc1ccc2c(c1)N(C)C(=O)c1ccccc1S2 -35.3%
O=C(CSc1nc2c([nH]c3ccccc32)c(=O)n1-c1ccc(F)cc1)N1CCCCCC1 -21.5%
COc1ccc(Br)cc1CNC(=O)CCC(=O)N1CCSc2ccccc21 -16.4%
Clc1cccc(-c2noc3ncnc(NC4CCCCC4)c23)c1 -31.4%
O=C(Cn1cc(SCc2cccc(C(F)(F)F)c2)c2ccccc21)N1CCCCCC1 -9.61%
COc1cccc2cc(-c3nc(-c4cccs4)no3)c(=O)oc12 8.12%
COc1cc(NC(=O)CCc2c(C)nc3c(c(C)nn3-c3ccccc3)c2C)cc(OC)c1OC -11.5%
